About 5,800 (2.1%) of roughly 270,000 compounds were called active. The shares of active, inactive and inconclusive entries below differ from those in the screen. The call rests on the fitted dose curve; in most records, active means well fitted inhibition curve with a large enough effect; inconclusive means small, poorly fitted or top-dose-only effect; inactive means flat fitted curve, though single readings scatter. A potency beside an inconclusive call is a rough fit, not a confirmed value.
Target: Microtubule-associated protein tau (Homo sapiens) (UniProt P10636)
Test: qHTS for Inhibitors of Tau Fibril Formation, Thioflavin T Binding; further: nearly all actives have a fitted effect of over 55% in size
Details: recombinant tau K18 P301L (four-repeat tau fragment), heparin-induced fibrillization, ThT fluorescence; series mostly up to 57.4 µM
Outline: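 Tau K18 P301L fragment (15 uM unlabeled plus 0.24 uM Alexa 594-labeled) in 100 mM sodium acetate pH 7 with compound, fibrillization induced by 20 uM heparin for 6 hr at 37 C. Thioflavin T (30 uM) added, fluorescence read after 1 hr (ex 450, em 510 nm).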
On the % scale 0 is the no-effect control and ±100 the full control effect; potency means the concentration at half of the fitted maximal effect; tags describe the fitted curve by direction and shape.

UniProt P10636, sequence (P10636 whole entry, looked up): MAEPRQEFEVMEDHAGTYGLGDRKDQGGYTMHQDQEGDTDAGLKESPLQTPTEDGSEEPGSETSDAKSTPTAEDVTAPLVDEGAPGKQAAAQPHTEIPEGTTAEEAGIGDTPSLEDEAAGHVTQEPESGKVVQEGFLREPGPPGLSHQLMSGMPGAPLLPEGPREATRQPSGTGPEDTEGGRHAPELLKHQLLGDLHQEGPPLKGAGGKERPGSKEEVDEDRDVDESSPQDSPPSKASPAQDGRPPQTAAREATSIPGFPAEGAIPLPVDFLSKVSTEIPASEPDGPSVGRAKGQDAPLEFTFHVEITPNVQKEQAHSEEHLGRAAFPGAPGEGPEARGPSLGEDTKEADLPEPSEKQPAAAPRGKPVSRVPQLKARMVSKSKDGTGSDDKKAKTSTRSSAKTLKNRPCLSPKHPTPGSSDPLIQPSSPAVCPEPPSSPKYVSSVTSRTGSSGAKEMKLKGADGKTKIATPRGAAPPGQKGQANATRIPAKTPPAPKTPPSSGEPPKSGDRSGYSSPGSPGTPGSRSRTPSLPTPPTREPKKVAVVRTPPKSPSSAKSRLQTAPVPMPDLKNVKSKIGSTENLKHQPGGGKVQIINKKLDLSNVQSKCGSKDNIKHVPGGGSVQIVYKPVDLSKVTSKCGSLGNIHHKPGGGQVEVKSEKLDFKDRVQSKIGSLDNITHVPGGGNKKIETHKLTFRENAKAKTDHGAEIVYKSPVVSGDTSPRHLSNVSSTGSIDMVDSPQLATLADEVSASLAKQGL

Row | SMILES | Potency | activity, negative = inhibition
1 | COc1ccc(-c2c(C#N)c(SCC(=O)Nc3cccc(Cl)c3)nc(C)c2C(=O)Nc2ccccc2)cc1OC | inconclusive: 3.98 µM [activator, full curve, poor fit] | 
2 | CC(=O)Nc1ccc(Nc2nc3ccccc3nc2NS(=O)(=O)c2ccccc2)cc1 | inconclusive: 28.2 µM [inhibitor, partial curve] | 
3 | CCN(CCNC(=O)C1CCN(Cc2nc(-c3ccc(Cl)cc3)oc2C)CC1)c1ccccc1 | inconclusive: 15.8 µM [inhibitor, partial curve] | 
4 | COc1ccc(C(=O)OCC(=O)N2CCCC2=O)c(OC)c1 | inactive | 
5 | O=C(c1ccc(Oc2ccccc2)cc1)C1CCCN(C(=O)c2cnccn2)C1 (stereo unspecified) | inactive | 
6 | COc1cc(OC)cc(C(=O)Nc2cc3c(cc2N2CCCCC2)n(C)c(=O)n3C)c1 | inconclusive: 31.6 µM [inhibitor, partial curve, poor fit] | 
7 | COc1ccc(-n2nc3c(N4CCC(C(=O)NCc5cccc(F)c5)CC4)nnc(C)c3c2C)cc1 | inactive | 
8 | O=C(Nc1ccc2nc(-c3cccs3)c(-c3cccs3)nc2c1)N1CCOCC1 | inconclusive: 14.1 µM [inhibitor, partial curve] | 
9 | Nc1cccc2[nH]c(C(F)(F)F)nc12 | inconclusive: 12.6 µM [inhibitor, partial curve] | 
10 | CCCCOc1ccc(-c2cnc3ccccc3n2)cc1 | inconclusive: 17.8 µM [inhibitor, partial curve] | 
11 | COC(=O)C1=C(C(=O)OC)[C@@H]2Nc3ccccc3[C@@]23C[C@@H](C(=O)OC)N(S(=O)(=O)c2c(C)noc2C)C3=N1 |  | inactive: 1.34% [at 11.5 µM]
12 | Cc1ccc(-c2nc3ccccc3[nH]2)cc1NC(=O)COc1ccccc1[N+](=O)[O-] | inconclusive: 0.501 µM [inhibitor, full curve] | 
13 | COc1ccc([N+](=O)[O-])cc1NC(=O)Cc1ccccc1Cl | inactive | 
14 | CCOC(=O)N1CCN(C(=O)C2CCN(C(=O)c3cc4sccc4n3CC)CC2)CC1 | inconclusive: 15.8 µM [inhibitor, partial curve] | 
15 | COc1ccc(-c2nc(C#N)c(NCc3ccco3)o2)cc1 | inconclusive: 28.2 µM [inhibitor, single point] | 
16 | COc1cccc(Cc2nc3ccccc3nc2SCC(=O)NCCc2ccccc2)c1 | inactive | 
17 | CC(=O)c1ccc(NC(=O)c2ccc(S(=O)(=O)N3CCCC3)cc2)cc1 | inactive | 
18 | N#CC1=C(N)OC2=C(CCc3ccccc32)C1c1ccccc1 (stereo unspecified) | inconclusive: 39.8 µM [inhibitor, single point] | 
19 | Cc1ccc(C(CCN(Cc2ccccc2)C(=O)c2ccco2)c2ccco2)cc1 (stereo unspecified) | inconclusive: 15.8 µM [inhibitor, single point] | 
20 | CCCC(=O)N(C1CC(C)C(C#N)(C#N)C1(C#N)C#N)N(C)C (stereo unspecified) | inconclusive: 12.6 µM [inhibitor, partial curve] | 
21 | CC(=O)N1CCN(C(=S)NCCc2ccccc2)CC1 | inactive | 
22 | O=c1c2cc3c(cc2[nH]c(=S)n1Cc1ccco1)OCO3 | inactive | 
23 | CCc1ccc(NC(=O)CCn2c(-c3ccc(OC)cc3)cc(C(C)=O)c2C)cc1 | inactive | 
24 | COC(=O)CCC(=O)OC1(C)C(=O)C2=CN(c3ccccc3)C(c3ccc(OC)cc3)=CC2=C(Br)C1=O (stereo unspecified) | inconclusive: 3.98 µM [inhibitor, single point] | 

Row | SMILES | Potency | activity, negative = inhibition
25 | CN(C)/N=C/c1ccc(OS(=O)(=O)c2ccccc2)cc1 | inconclusive: 3.55 µM [inhibitor, partial curve, poor fit] | 
26 | N=c1sccn1CC(=O)Nc1cccc(Oc2ccccc2)c1 | inactive | 
27 | COc1ccc(Cl)cc1NC(=S)NCCc1c[nH]c2ccccc12 | inconclusive: 39.8 µM [inhibitor, single point] | 
28 | Cn1c(SCC(=O)N2CCOCC2)ncc(C(=O)Nc2ccccc2)c1=O | inconclusive: 17.8 µM [inhibitor, single point] | 
29 | Cc1ccc(OCCOCCOc2cccc3cccnc23)c(Br)c1 | inconclusive: 15.8 µM [inhibitor, partial curve] | 
30 | CCCOc1ccc(C(C)(O)CN2CCOCC2)cc1 (stereo unspecified) | inactive | 
31 | O=C(O)c1ccc2cc(-c3ccc(O)c(C45CC6CC(CC(C6)C4)C5)c3)ccc2c1 | active: 28.2 µM | 
32 | COc1ccc(/C=C2\SC(=S)N(CCCC(=O)Nc3ccccn3)C2=O)cc1OC | inconclusive: 3.55 µM [inhibitor, full curve] | 
33 | O=C(Cc1ccsc1)N1CCc2c([nH]c3ccccc23)C1c1ccccn1 (stereo unspecified) | inconclusive: 22.4 µM [inhibitor, partial curve] | 
34 | O=C(Cn1ncc(Cl)c(Cl)c1=O)N1CCOCC1 | inactive | 
35 | Oc1c(/C=N/c2ncn[nH]2)ccc2ccccc12 | active: 28.2 µM | 
36 | O=C(O)c1ccc(N/N=C/c2ccc(OC(=O)c3ccccc3Cl)cc2)cc1 | inconclusive: 4.47 µM [inhibitor, full curve] | 
37 | N#C/C(=N\Nc1cccc(C(F)(F)F)c1)C(=O)c1csc(-c2cccnc2)n1 | active: 4.47 µM | 
38 | Cc1cc2ncn(/N=C/c3ccc(-c4ccccc4)o3)c2cc1C | inconclusive: 1.78 µM [inhibitor, full curve, poor fit] | 
39 | Cc1c(C(=O)N(C)Cc2ccccc2)oc2ccc(S(=O)(=O)N3CCCC3)cc12 | inconclusive: 22.4 µM [inhibitor, partial curve] | 
40 | COc1cccc(CC(=O)Nc2ccc3nc(N4CCC(C)CC4)cc(C)c3c2)c1 | inconclusive: 20 µM [inhibitor, partial curve] | 
41 | COc1ccccc1/C=N/NC(=Nc1ccc(C)cc1)c1nc2ccccc2s1 | inactive | 
42 | CCC(=O)Nc1cccc(-c2nnc(SCC(=O)c3ccccc3)n2C)c1 | inconclusive: 12.6 µM [inhibitor, partial curve] | 
43 | COc1ccc(Nc2ncnc3c2cnn3-c2ccc(C)cc2C)cc1 | inconclusive: 0.0398 µM [inhibitor, full curve, poor fit] | 
44 | Cc1nn(C(=O)c2ccccc2F)c(C)c1S(=O)(=O)N1CCOCC1 | inconclusive: 31.6 µM [inhibitor, single point] | 
45 | NNC(=S)Nc1c(F)cc(F)cc1Br | inconclusive: 14.1 µM [inhibitor, partial curve] | 
46 | NC1=NC(=O)/C(=C\c2cc([N+](=O)[O-])ccc2Cl)S1 | inconclusive: 1.41 µM [inhibitor, full curve, poor fit] | 
47 | COc1ccc(C(=O)c2ccc(Br)cc2)cc1 | inconclusive: 3.16 µM [inhibitor, full curve] | 
48 | Cc1ccc(CNC(=O)CSc2ncc(S(=O)(=O)c3ccc(Br)cc3)c(=O)[nH]2)cc1 | inactive | 

Row | SMILES | Potency | activity, negative = inhibition
49 | Nc1c(C(=O)Nc2ccccc2Cl)c2ccccn2c1C(=O)c1ccc(Cl)cc1 | inconclusive: 44.7 µM [inhibitor, single point] | 
50 | CN(C)C(=O)n1nnnc1Cc1ccc(-c2ccccc2)cc1 | inactive | 
51 | CN1C(=O)CC(Sc2ccccc2C(=O)O)C1=O (stereo unspecified) | inactive | 
52 | CC(=O)c1ccc(OCC(=O)Nc2ccc3nc(C)sc3c2)cc1 | inconclusive: 1.41 µM [inhibitor, full curve] | 
53 | CCOC(=O)C1CCN(S(=O)(=O)c2cccc(-c3cn4cccnc4n3)c2)CC1 | inactive | 
54 | Cc1ccc(-c2sc(C(=O)Nc3ccc(Br)cc3)cc2CC(=O)O)cc1 | inconclusive: 35.5 µM [activator, single point] | 
55 | CCn1c(=O)c2cc(C(=O)N(CCCOC(C)C)Cc3ccco3)sc2c2ccccc21 | inconclusive: 31.6 µM [inhibitor, single point] | 
56 | CC1CCCCN1S(=O)(=O)c1ccc(S(=O)(=O)N2CCN(c3ccc(F)cc3)CC2)cc1 (stereo unspecified) | inactive | 
57 | O=C(c1cc2c(s1)-c1ccccc1OC2)N1CCN(c2ccccn2)CC1 | inconclusive: 4.47 µM [inhibitor, partial curve] | 
58 | O=C(O)C(NS(=O)(=O)c1ccc(F)cc1)c1ccccc1 (stereo unspecified) | inactive | 
59 | COc1ccc(N=Cc2nc(-c3ccco3)oc2O)cc1 | active: 15.8 µM | 
60 | CSc1nc(C=Nc2ccccc2Cl)c(O)n1Cc1cccc(Cl)c1 | inconclusive: 39.8 µM [inhibitor, single point] | 
61 | C=CCc1cc(/C=C2/NC(=O)N(CC(=O)OC)C2=O)cc(OC)c1O | inactive | 
62 | Cc1ccc(-c2cccc(NC(=O)C3C(C(=O)O)[C@@H]4C=C[C@H]3C4)c2)o1 (stereo partly specified) | inconclusive: 15.8 µM [inhibitor, partial curve, poor fit] | 
63 | c1cc(CNc2ccc3c(c2)OCO3)ccn1 | inconclusive: 22.4 µM [inhibitor, partial curve] | 
64 | Cc1ccc2nc(-c3ccc(NC(=O)COC(=O)c4ccc([N+](=O)[O-])o4)cc3)sc2c1 | inconclusive: 3.16 µM [inhibitor, full curve] | 
65 | CC(=O)Nc1ccc(Nc2nc(-c3ccccc3)nc3ccccc23)cc1 | inconclusive: 25.1 µM [inhibitor, partial curve] | 
66 | CCOc1ccccc1NS(=O)(=O)c1c(C)nc2sccn2c1=O | inactive | 
67 | COc1ccccc1C(=O)Nc1ccc2nc(N3CCC(C)CC3)cc(C)c2c1 | active: 8.91 µM | 
68 | CC(=O)c1cccc(NC(=O)Cn2c(=O)c(CNc3ccc(C)cc3)cc3cc4c(cc32)OCCO4)c1 | inactive | 
69 | COc1ccc(N2C(=O)CSC2c2cccc(OC)c2OC)cc1 (stereo unspecified) | inactive | 
70 | Cc1ccc(-c2csc(NC(=S)NC(=O)c3cccs3)n2)cc1 | inconclusive: 28.2 µM [inhibitor, single point] | 
71 | Cc1onc(-c2ccccc2)c1C(=O)/C=C/N(C)C | inactive | 

Source: PubChem BioAssay AID1460 (National Center for Advancing Translational Sciences (NCATS), 2008)
